{
  "source": "paper PMC12136788",
  "binders": {"B1": {"name": "chr9:24545423:24545649:-|CDS|ENSG00000205442|control|control|control (ssRNA)", "RNA": "GGGAGUUCUACAGUCCGACGAUCCCUGCCCCUCUCAGCCUUCCAUGGAGUCAAAGGCUGUUUAGAAUGUGACCCCAAAUUUAUAGAGGAUGUUGGCUCCUUGCUGGGAAAUCUGAUACCUUCAGAAGUCCCCGGCCGAACUCACAACAGAGGAUUGAGCAUCA"}, "B2": {"name": "chr2:48379045:48379146:+|3pUTR|ENSG00000170802|unk|total|mutant (ssRNA)", "RNA": "GGGAGUUCUACAGUCCGACGAUCCCUUAUCCUCUUUUCUGAUGCCGCAUAAAAAUUGUCCCGGUUUGAGUUAUAACUGCCAGCCGAUGACCAGUCACAAGUGAACCACUUCUCAGUUGCCAAUCUUUGCUCAUAUUAAAAACACAACAGAGGAUUGAGCAUCA"}, "B3": {"name": "chr19:45844017:45844118:-|CDS|ENSG00000125755|msi1|total|mutant (ssRNA)", "RNA": "GGGAGUUCUACAGUCCGACGAUCGCCCGCCAGAGACCCAUGUUCAUGUCUGAGGUGAUCCAGGCCUAUGAAACUCUGCAUGGCCGGUCAUUGUCCUCCCCCCUCCCCCUGCCUUCUCUUCACUGGCCAGUCUGCUCUUUCUUUCAACAGAGGAUUGAGCAUCA"}, "B4": {"name": "chr19:12791443:12791544:+|5pUTR|ENSG00000171223|unk|FALSE|unique (ssRNA)", "RNA": "GGGAGUUCUACAGUCCGACGAUCGGGGGGCGCGGGGGCCCGGCUCCGGCGACGGCCAAUCGGAGCGCACUUCCGUGGCUGACUAGCGCGGUAUAAAGGCGUGUGGCUCAGGCUGAGCGGCUGGGACCUUGAGAGCGGCCAGGCCAACAGAGGAUUGAGCAUCA"}, "B5": {"name": "ENSG00000071537:stop:overlap|stop_codon|ENSG00000071537|stop_codon|NA|stop_codon (ssRNA)", "RNA": "GGGAGUUCUACAGUCCGACGAUCAUACAUUUGGAGCUCUUGGGGGCAAUCUAAUAGCCCACAUGGUUUUGGUAAGUAGACUUUAGUGGAAGGCUAAUAAUAUUAACAUCAGAAGAAUUUGUGGUUUAUAGCGGCCACAACUUUCAACAGAGGAUUGAGCAUCA"}, "B6": {"name": "chr12:12643182:12643283:+|3pUTR|ENSG00000111269|unk|total|mutant (ssRNA)", "RNA": "GGGAGUUCUACAGUCCGACGAUCCUGGAGUUGUGCACAGCACCGCAGCCCGUGGGCCUGGCUGGGGGUGCAGAAGGGCAGGGCCGUUCUUUCCAUUUCCCCUUGCAGCUACACUUACUUUCUCCCUGACUACCAAAUGGAGUGCAACAGAGGAUUGAGCAUCA"}, "B7": {"name": "ENSG00000070961:be:win_3901|3pUTR|ENSG00000070961|bound_else_gene|NA|bound_elsewhere_windowed (ssRNA)", "RNA": "GGGAGUUCUACAGUCCGACGAUCAAGUGACCUGUGGAUCAUCAGUAGUACCCAAGCAUGGUCCUGAACAGUGUAUUAGCAGAGCUUUAGUUUAUCUCAGUCCUGGAUGGGAGAGAGAGGGAGGAGUAAAACUGGGCAAGACAACAACAGAGGAUUGAGCAUCA"}, "B8": {"name": "chr1:165890246:165890361:+|CDS|ENSG00000143179|unk|FALSE|unique (ssRNA)", "RNA": "GGGAGUUCUACAGUCCGACGAUCCUCCUGGGGCAGAAUGAGGUGGACUAUCGCCAGAAGCAGGUGGUCAUCCUGAGCCAGGAUAGCUUCUACCGUGUCCUUACCUCGGAGCAGAAGGCCAAAGCCCUGAAGGGCCAGUUCAACCAACAGAGGAUUGAGCAUCA"}, "B9": {"name": "chr6:142752714:142752806:-|3pUTR|ENSG00000010818|msi1_unk|FALSE|overlapping (ssRNA)", "RNA": "GGGAGUUCUACAGUCCGACGAUCUUUUCUUUACUUUGCUUAUAUUCUUAUAAGCAUUUUUUAGCAGUAAUUUGUACAUAUUUUAGAAUUUGUGUAUCUGCUUUGUAAUAAAUGUAAUUUCUUUCCUUUUUUGGACACUUGGAUCAACAGAGGAUUGAGCAUCA"}, "B10": {"name": "chr11:108106880:108106981:+|3pUTR|ENSG00000166266|msi1|FALSE|unique (ssRNA)", "RNA": "GGGAGUUCUACAGUCCGACGAUCUUAGUGGUAUGGCAAUAAGACACUUCAGAGGCUAUCUUAACCUCUGAAUACCCAUCUUCUAGUUUAAAGACAGAGACAUCCCAUCUGGAAAAUGUUAACUUGUGUUGCCAUCUCGUUGCCCAACAGAGGAUUGAGCAUCA"}, "B11": {"name": "chr7:130166276:130166377:-|3pUTR|ENSG00000146842|msi1|FALSE|unique (ssRNA)", "RNA": "GGGAGUUCUACAGUCCGACGAUCUCUCUGAGCCACUGACUCUUCUGAAAUAAAAUACACAUGGGUGUAUGUUACAGACUCUUUAGAUUUAACAGAAAAUGUAGCUGUUAUGAAAUGUAAUUGUAAAAAUAUGUCCCGUAUCUUCAACAGAGGAUUGAGCAUCA"}, "B12": {"name": "ENSG00000176396:stop:overlap|stop_codon|ENSG00000176396|stop_codon|NA|stop_codon (ssRNA)", "RNA": "GGGAGUUCUACAGUCCGACGAUCCUGAAGUUAUCAACCCUCUGAUAGAAGAACUUGGUUGCGAUAAGUUUAUCAAUAGAGAAUAGUUAUGUGGUGACACUACUUCAAGAGAACCUCUGCAUUCCAGUCAUACCAAUCCUGCAACAACAGAGGAUUGAGCAUCA"}, "B13": {"name": "chr5:91374913:91375023:-|CDS|ENSG00000113369|unk|FALSE|bound_elsewhere (ssRNA)", "RNA": "GGGAGUUCUACAGUCCGACGAUCGAGACGUGGAAUGGCAAGUUGCUGAAAAUUCCACCAGUUUCUCCCUCUAUCCUCGACUGUAGUAUAAUCCGCGUGGAAUAUUCACUAAUGGUAUGUACACAUUUAAGAGGUUUUUUCCUUCAACAGAGGAUUGAGCAUCA"}, "B14": {"name": "chr1:151291320:151291421:+|3pUTR|ENSG00000143373|unk|FALSE|unique (ssRNA)", "RNA": "GGGAGUUCUACAGUCCGACGAUCAAUAUUUUGUUAAUUCCUGUCUCUCCAACCUGAAGAAGAAGAGCAUUUGAGGAUUAUUCUAGUUAUUUGCAACCUCCCUUUGGGUUUGGCCCUGGAGUCCUAGUAGAGUGGACCCUCCAUCAACAGAGGAUUGAGCAUCA"}, "B15": {"name": "chr3:138622260:138622368:+|CDS|ENSG00000158234|unk|FALSE|unique (ssRNA)", "RNA": "GGGAGUUCUACAGUCCGACGAUCAUUAGUGGGCAAAGAAACAUUCUAUGUUGGAGCUGCAAAGACAAAAGCGACCAUAAAUAUAGACGCUAUCAGUGGUUUUGCUUAUGAAUAUACUCUGGAAAUUAAUGGGAAAAGUCUCAACAACAGAGGAUUGAGCAUCA"}, "B16": {"name": "chr15:40779088:40779310:-|CDS|ENSG00000104129|control|control|control (ssRNA)", "RNA": "GGGAGUUCUACAGUCCGACGAUCGAGAGGACCCAGAAACUUGAUGAGAAAAGGAAGAAAGUGAAGCUUGGUAGGUGCCAUCAUAGUGCUCGGUGGCCUGUGGUUUCCUGUGGUCAUUUUCAUUCAUCUCCCUCACCUGAAGCUCAACAGAGGAUUGAGCAUCA"}, "B17": {"name": "chr14:92131016:92131127:+|CDS|ENSG00000165934|unk|FALSE|bound_elsewhere (ssRNA)", "RNA": "GGGAGUUCUACAGUCCGACGAUCACCCUUUCUGGGGUCCAAGAAGAAUCUGCCCUUUGCUAUCUUCUCCAAGUUGAUGAGUUUAGAUUUUUAUUGGACUGUGGCUGGGAUGAGCACUUUUCUAUGGAUAUUAUUGAUUCCCUGCAACAGAGGAUUGAGCAUCA"}, "B18": {"name": "chr1:55154109:55154210:-|CDS|ENSG00000162402|msi1|FALSE|unique (ssRNA)", "RNA": "GGGAGUUCUACAGUCCGACGAUCCCUUAGUGAUGCAUAUGCAGUGAAAGAAGCAAUCAAGAGGAGCUACAUCAUCAAGUGCAUAGAAGAUAUUAAGAGGGUUGGUUUCAGCUUUUAUCUGAUUUUGUUGUUAGAGCAACAGUACAACAGAGGAUUGAGCAUCA"}, "B19": {"name": "chr3:121431430:121432303:-|three_prime_utr|ENSG00000051341|control|control|control (ssRNA)", "RNA": "GGGAGUUCUACAGUCCGACGAUCUGGAAAGAACAGAGAUUACCCUUUCACCUACCUCAGCAAAACAAACUUUCAAGUCUUGAUAGACUUAGCCUAGUAAUUUUAUAGUGAGAGUUUCAAACUAUAUAUCAGUGUCUAUAGCAUCAACAGAGGAUUGAGCAUCA"}, "B20": {"name": "chr12:3284911:3285012:+|3pUTR|ENSG00000011105|msi1|total|mutant (ssRNA)", "RNA": "GGGAGUUCUACAGUCCGACGAUCGGAGGACAGAACCGUUGGCAUUAUCAGGAUUCGUGUUUUGUGGGGGUGGGAGUGGAGAGCCGGGUGGUCUUGUGAGUUGUGCAGGGUGAAGACCGCUUCCCUGAGACAGGGGCAGUGGUGCAACAGAGGAUUGAGCAUCA"}, "B21": {"name": "ENSG00000107863:be:win_351|CDS|ENSG00000107863|bound_else_gene|NA|bound_elsewhere_windowed (ssRNA)", "RNA": "GGGAGUUCUACAGUCCGACGAUCAUUAUGUACAGGUGACCGAAUUAUAAAAGUCAAUGGAGAAAGUGUUAUUGGCAAAACCUAUUCCCAAGUAAUUGCUUUAAUUCAAAACAGUGAUACAACAUUGGAACUUAGUGUUAUGCCCAACAGAGGAUUGAGCAUCA"}, "B22": {"name": "chr2:85598546:85599075:-|three_prime_utr|ENSG00000168890|control|control|control (ssRNA)", "RNA": "GGGAGUUCUACAGUCCGACGAUCAAGCCAGACCACUGGGGUUUCCUGCUGCAGGAAUUGGGGGCUGGGAACAGCAGAGGGGAUAGAAGUCUGGUGGAGGUGGAGUGGGCACGCCUUAGCCUACGGAAAGGCCCAUUUCUGGGCCAACAGAGGAUUGAGCAUCA"}},
  "note": "The other results are listed elsewhere or left out.",
  "data": [
    {"molecular_target": "MSI1 full-length (mouse, UniProt Q61474 1-362)", "sequence (Q61474 whole entry)": "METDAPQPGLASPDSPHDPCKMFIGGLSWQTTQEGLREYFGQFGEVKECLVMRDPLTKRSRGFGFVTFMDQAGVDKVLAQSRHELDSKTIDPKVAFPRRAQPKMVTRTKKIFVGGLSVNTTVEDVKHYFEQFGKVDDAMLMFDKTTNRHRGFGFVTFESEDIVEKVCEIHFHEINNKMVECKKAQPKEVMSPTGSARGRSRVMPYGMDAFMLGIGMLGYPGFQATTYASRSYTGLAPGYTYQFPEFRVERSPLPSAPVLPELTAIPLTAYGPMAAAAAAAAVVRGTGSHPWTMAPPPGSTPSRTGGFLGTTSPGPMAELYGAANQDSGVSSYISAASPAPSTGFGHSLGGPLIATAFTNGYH", "assay": "nsRBNS (natural sequence RNA bind-n-seq); RBNS binding buffer (assumed for nsRBNS): 25 mM Tris pH 7.5, 150 mM KCl, 3 mM MgCl2, 0.01% Triton X-100, 500 ug/ml BSA, 20 U/ml SUPERase-In, 4 C; UNK is unkempt and MSI1 is Musashi-1; names of the RNAs are library labels; protein concentration not given here; high values mean tight binding", "units": {"binding signal": "enrichment R"}, "values": [
      {"binder": "B1", "binding signal": 0.774},
      {"binder": "B2", "binding signal": 0.364},
      {"binder": "B3", "binding signal": 0.782},
      {"binder": "B4", "binding signal": 0.568},
      {"binder": "B5", "binding signal": 0.304},
      {"binder": "B6", "binding signal": 0.811},
      {"binder": "B7", "binding signal": 3.09},
      {"binder": "B8", "binding signal": 0.379},
      {"binder": "B9", "binding signal": 3.5},
      {"binder": "B10", "binding signal": 0.346},
      {"binder": "B11", "binding signal": 3.28},
      {"binder": "B12", "binding signal": 0.992},
      {"binder": "B13", "binding signal": 0.344},
      {"binder": "B14", "binding signal": 0.839},
      {"binder": "B15", "binding signal": 0.539},
      {"binder": "B16", "binding signal": 0.755},
      {"binder": "B17", "binding signal": 0.346},
      {"binder": "B18", "binding signal": 0.478},
      {"binder": "B19", "binding signal": 17.4},
      {"binder": "B20", "binding signal": 0.676},
      {"binder": "B21", "binding signal": 0.444},
      {"binder": "B22", "binding signal": 0.462}
    ]}
  ]
}
